This is an account of results in patent US11155596B2, “Polypeptide” (AFFIBODY AB, priority 2016, dated 2021).

Where two headings read alike, the source gives them in different places.

Series [1] can be described thus: Circular dichroism (CD) spectroscopy, variable temperature measurement. In kind it is physicochemical. The conditions noted are these: His6-tagged Z variants in PBS; VTM to 80° C. Here is the method:
Circular dichroism (CD) spectroscopy analysis: Two purified Z variants with a C-terminal cysteine, Z15168-Cys (SEQ ID NO:809) and Z15169-Cys (SEQ ID NO:810), were diluted to 0.5 mg/ml in 20 mM HEPES, 1 mM EDTA, pH 7.2. For each diluted Z variant, a CD spectrum at 250-195 nm was obtained at 20° C. In addition, a variable temperature measurement (VTM) was performed to determine the melting temperature (Tm). In the VTM, the absorbance was measured at 221 nm while the temperature was raised from 20 to 90° C., with a temperature slope of 5° C./min. A new CD spectrum was obtained at 20° C. after the heating procedure in order to study the refolding ability of the Z variants. The CD measurements were performed on a Jasco J-810 spectropolarimeter (Jasco Scandinavia AB) using a cell with an optical path length of 1 mm.
Circular dichroism (CD) spectroscopy analysis: A subset of the purified Hiss-tagged Z variants were analyzed by CD spectroscopy as described in Example 3, but with the exceptions that the analysis buffer was PBS and that the temperature was raised to 80° C. in the VTM.
A general note: Circular dichroism is the unequal absorption of left and right circularly polarised light.

Another series has as its target hPD-L1 (Homo sapiens, UniProt Q9NZQ7). Kind of series: Biacore kinetic analysis of maturated Z variants, hPD-L1. It is filed as binding. Here is the method:
(§1) hPD-L1, hPD-L2, hB7-H3, hB7-H4 and mPD-L1 were immobilized in separate flow cells on the carboxylated dextran layer of different CM5 chip surfaces (GE Healthcare, cat. no. BR100012). The immobilization was performed using amine coupling chemistry according to the manufacturer's protocol and using HBS-EP as running buffer (0.01 M HEPES pH 7.4, 0.15 M NaCl, 3 mM EDTA, 0.005% v/v Surfactant P20, GE Healthcare, cat. no. BR100188). […] One flow cell surface on each chip was activated and deactivated for use as blank during analyte injections. In the kinetic experiment, HBS-EP was used as running buffer and the flow rate was 50 μl/min. The analytes, i.e. the Z variants, were each diluted in HBS-EP buffer within a concentration range of 1000 to 0.01 nM and injected for 5 min, followed by dissociation in running buffer for 15-25 min. After dissociation, the surfaces were regenerated with one or two injections of 0.1% SDS. Kinetic constants were calculated from the sensorgrams using the Langmuir 1:1 model of BiaEvaluation software 4.1 (GE Healthcare).
(§2) Biacore kinetic and specificity analysis: Kinetic constants (ka and kd) and affinities (KD) for human PD-L1 and rhesus monkey PD-L1 (RhPD-L1; rhesus PD-L1/Fc Chimera, Sino Biological Inc., cat. no. 90251-C02H) were determined for 24 matured Hiss-tagged Z variants (specified in Example 6). The Z variants were also tested for binding against the sequence-related proteins hPD-L2, hB7-H3 and hB7-H4. The Biacore analyses were performed essentially as described in Example 3, however a flow rate of 30 μl/min was used. […] In a first binding kinetic analysis, the 24 Z variants were injected at concentrations of 5 and 50 nM over chips immobilized with hPD-L1 and RhPD-L1, respectively. […] In the specificity test, i.e. the binding analysis against hPD-L2, hB7-H3 and hB7-H4, the 24 Z variants were injected at a concentration of 500 nM.
Background: Surface plasmon resonance follows binding to a sensor surface in real time, without labels.

The next series has as its system RhPD-L1. Kind of series: Biacore kinetic analysis of maturated Z variants, RhPD-L1. It is filed as binding, rhesus monkey. The method, then:
as §1, §2

A further series concerns the target T1, hPD-L1 binding to hPD-1 (Homo sapiens, UniProt Q9NZQ7).
T1 construct: 1086-PD-050 (hPD-1)
Kind of series: AlphaLISA blocking assay (Example 7). The conditions noted are these: His6-tagged Z variants 250 nM to 4 pM; 8 nM biotinylated hPD-L1; read-out: IC50 AlphaLISA (M), blocking the PD-1/PD-L1 interaction. Here is the method:
AlphaLISA blocking assay: The potential of Z variants to inhibit binding of PD-L1 to PD-1 was analyzed by AlphaLISA and recordings in an EnSpire multiplate reader 2300 (Perkin Elmer). hPD-1 (human PD-1 Fc-chimera; R&D Systems, cat. no. 1086-PD-050) was immobilized on AlphaLISA Acceptor beads (Perkin Elmer, cat. no. 6772002) according to the manufacturer's recommendations. […] Finally, streptavidin coated Donor beads (Perkin Elmer, cat. no. 6772002) were added to a final concentration of 40 μg/ml and incubated for 30 min. All incubations were performed at RT in the dark. The plate was analyzed in the EnSpire instrument and the IC50 values were calculated using GraphPad Prism 5.
Exception 2: hPD-1-coated Acceptor beads were added to a final concentration of 10 μg/ml and incubated for 50 min.
A general note: In Alpha technology, singlet oxygen from a donor bead excites a nearby acceptor bead.

The mark [2] stands for this setting: His6-tagged Z variants at 135, 45, 15, 5 and 1.67 nM.
Where [3] appears, read: His6-tagged Z variants at 135, 45, 15, 5 and 1.67 nM, read-out: hPD-L1 KD.
[4] abbreviates: ranking experiment, His6-tagged Z variants at 5 and 50 nM, 1:1 model, read-out: hPD-L1 KD (M), approximate affinity constant.
[5] abbreviates: His6-tagged Z variants at 135, 45, 15, 5 and 1.67 nM, read-out: RhPD-L1 KD.
Setting [6] is: ranking experiment, His6-tagged Z variants at 5 and 50 nM, 1:1 model, read-out: RhPD-L1 KD (M), approximate affinity constant.

T1 sequence (Q9NZQ7 19-239 limits assumed): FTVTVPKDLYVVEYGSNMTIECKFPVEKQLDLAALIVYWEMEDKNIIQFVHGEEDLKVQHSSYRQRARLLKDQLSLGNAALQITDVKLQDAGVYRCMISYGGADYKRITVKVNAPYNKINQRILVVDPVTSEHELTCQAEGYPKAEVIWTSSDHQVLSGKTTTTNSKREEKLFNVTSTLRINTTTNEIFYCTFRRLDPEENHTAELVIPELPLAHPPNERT
Sequence of hPD-L1 (Q9NZQ7 19-290): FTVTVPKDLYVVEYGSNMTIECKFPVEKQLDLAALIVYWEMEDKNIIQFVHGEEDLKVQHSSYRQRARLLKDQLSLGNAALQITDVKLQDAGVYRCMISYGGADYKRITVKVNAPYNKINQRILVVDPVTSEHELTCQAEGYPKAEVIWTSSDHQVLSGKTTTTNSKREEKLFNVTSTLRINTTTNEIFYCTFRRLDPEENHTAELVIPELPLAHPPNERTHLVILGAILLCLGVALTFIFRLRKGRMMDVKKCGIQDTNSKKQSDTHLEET

What is called Kd is the concentration at which binding is half-saturated. Regarding “Z17964: maturated PD-L1 binding Z variant (VDAKYAKERNAAAYEILYLPNLTNAQKWAFIWKLDDDPSQSSELLSEAKKLNDSQAPK; Engineered PD-L1 binding polypeptide)”, in series [1], the “Tm (° C.)” value stood at 62 °C. Also, the “hPD-L1 ka” value in the series with hPD-L1 (setting [2]) stood at 2.1e+06 M⁻¹ s⁻¹. In the series with hPD-L1 (setting [2]), the “hPD-L1 kd” value came out at 0.00043 s⁻¹. In addition, the Kd in the series with hPD-L1 (setting [3]) was 2.1e-10 M; with hPD-L1 (setting [4]), 3e-10 M; on RhPD-L1 (setting [5]), 1.1e-10 M; on RhPD-L1 (setting [6]), 2e-09 M. Moreover, the “RhPD-L1 ka” value with RhPD-L1 (setting [2]) was 3.4e+06 M⁻¹ s⁻¹. In addition, the “RhPD-L1 kd” value in the series on RhPD-L1 (setting [2]) was determined as 0.00038 s⁻¹. For the same substance, the IC50 in the series with hPD-L1 binding to hPD-1 was determined as 8.9e-09 M.

With “Z17978: maturated PD-L1 binding Z variant (VDAKYAKERNEAAYEILYLPNLTQSQKWAFIWKLDDDPSQSSELLSEAKKLNDSQAPK; Engineered PD-L1 binding polypeptide)”, in series [1], the “Tm (° C.)” value came out at 59 °C. The Kd worked out at 4.5e-10 M in the series with hPD-L1 (setting [4]) and 1e-09 M on RhPD-L1 (setting [6]). In addition, the IC50 with hPD-L1 binding to hPD-1 was determined as 6.2e-10 M.

For the substance “Z18048: maturated PD-L1 binding Z variant (VDAKYAKERNSAAYEILYLPNLTNAQKWAFIWKLDDDPSQSSELLSEAKKLNDSQAPK; Engineered PD-L1 binding polypeptide)”, the “Tm (° C.)” value in series [1] amounted to 60 °C. Besides, in the series with hPD-L1 (setting [2]), the “hPD-L1 ka” value was 1.9e+06 M⁻¹ s⁻¹. In addition, the “hPD-L1 kd” value in the series with hPD-L1 (setting [2]) is 0.00044 s⁻¹. Also, the Kd with hPD-L1 (setting [3]) was 2.3e-10 M; with hPD-L1 (setting [4]), 3.5e-10 M; at RhPD-L1 (setting [5]), 2.4e-10 M; at RhPD-L1 (setting [6]), 1.8e-09 M. Also, the “RhPD-L1 ka” value in the series with RhPD-L1 (setting [2]) turned out to be 1.6e+06 M⁻¹ s⁻¹. Moreover, the “RhPD-L1 kd” value with RhPD-L1 (setting [2]) was determined as 0.00038 s⁻¹. The IC50 in the series with hPD-L1 binding to hPD-1 turned out to be 1.5e-10 M.

Turning to “Z18064: maturated PD-L1 binding Z variant (VDAKYAKERNKAAYEILYLPNLTNAQKWAFIWKLDDDPSQSSELLSEAKKLNDSQAPK; Engineered PD-L1 binding polypeptide)”, in series [1], the “Tm (° C.)” value is 62 °C. Moreover, the “hPD-L1 ka” value with hPD-L1 (setting [2]) was found to be 3.5e+06 M⁻¹ s⁻¹. For the same substance, the “hPD-L1 kd” value with hPD-L1 (setting [2]) came out at 0.00043 s⁻¹. The Kd with hPD-L1 (setting [3]) turned out to be 1.3e-10 M; with hPD-L1 (setting [4]), 1.3e-10 M; at RhPD-L1 (setting [5]), 9.6e-11 M; on RhPD-L1 (setting [6]), 1.5e-09 M. Moreover, the “RhPD-L1 ka” value with RhPD-L1 (setting [2]) turned out to be 3.5e+06 M⁻¹ s⁻¹. Moreover, the “RhPD-L1 kd” value with RhPD-L1 (setting [2]) was determined as 0.00034 s⁻¹. For the same substance, the IC50 in the series with hPD-L1 binding to hPD-1 turned out to be 3.9e-10 M.

On to “Z18074: maturated PD-L1 binding Z variant (VDAKYAKERNQAAFEILYLPNLTNAQKWAFIWKLDDDPSQSSELLSEAKKLNDSQAPK; Engineered PD-L1 binding polypeptide)”, for which, in series [1], the “Tm (° C.)” value was 62 °C. Moreover, in the series with hPD-L1 (setting [2]), the “hPD-L1 ka” value amounted to 2e+06 M⁻¹ s⁻¹. Further, the “hPD-L1 kd” value in the series with hPD-L1 (setting [2]) turned out to be 0.00054 s⁻¹. In addition, the Kd amounted to 2.7e-10 M with hPD-L1 (setting [3]), 3.6e-10 M with hPD-L1 (setting [4]), 2.7e-10 M on RhPD-L1 (setting [5]) and 2.9e-09 M at RhPD-L1 (setting [6]). The “RhPD-L1 ka” value in the series on RhPD-L1 (setting [2]) was 1.7e+06 M⁻¹ s⁻¹. Also, the “RhPD-L1 kd” value with RhPD-L1 (setting [2]) worked out at 0.00046 s⁻¹. Besides, in the series with hPD-L1 binding to hPD-1, the IC50 was found to be 3.1e-10 M.

As to “Z18090: maturated PD-L1 binding Z variant (VDAKYAKERNDAAYEILYLPNLTNQQKWAFIWKLADDPSQSSELLSEAKKLNDSQAPK; Engineered PD-L1 binding polypeptide)”, the “Tm (° C.)” value in series [1] was determined as 68 °C. Also, the figures for the Kd with hPD-L1 (setting [4]) and at RhPD-L1 (setting [6]) were 5.1e-10 M and 2.3e-09 M, respectively. For the same substance, the IC50 with hPD-L1 binding to hPD-1 came to 6.7e-10 M.

For “Z18233: maturated PD-L1 binding Z variant (VDAKYAKERNTAAQEILYLPNLTQGQKWAFIWKLDDDPSQSSELLSEAKKLNDSQAPK; Engineered PD-L1 binding polypeptide)”, the “Tm (° C.)” value in series [1] amounted to 57 °C. Besides, the figures for the Kd in the series with hPD-L1 (setting [4]) and on RhPD-L1 (setting [6]) were 7.2e-10 M and 4.4e-09 M, respectively. The IC50 with hPD-L1 binding to hPD-1 is 1.5e-10 M.
